Screen size: about 340,000 compounds; about 12,000 (3.5%) were called active. The inconclusive results got no clear call from the source; some entries with a clear call stand among them for comparison. Calls come from the whole dose curve; as a rule, active = well fitted inhibition curve with a large enough effect; inconclusive = small, poorly fitted or top-dose-only effect, or another doubt; inactive = no such curve, though single readings can be large or run the other way. Potencies of inconclusive entries are left out as doubtful fits.
test: qHTS Assay for Inhibitors of Hepatitis C Virus (HCV); conditions: Huh7.5.1 HCVcc-Cre (HCVcc is cell-culture hepatitis C virus) infection, luciferase reporter, 44 h; activity change, negative = inhibition: at 41.8 µM (top of the series)
Procedure, shortened: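 Whole-lifecycle infectious HCVcc-Cre system; cells 1,000/well, compound then virus (~0.5 moi) added 4 h after plating, 44 h culture. Luciferase read 15 sec following 15 min substrate incubation, room temp.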
% is set by controls: 0 for no effect and ±100 for the full control effect; potency is the fitted concentration of half-maximal effect; tags give direction and shape of the fitted curve.

Question: For `Cc1cc(C(=O)COc2ccc(Br)cc2F)c(C)n1C1CC1`, which Potency is on record?
Answer: The Potency was active: 22.4 µM.

Question: With `Cc1cc(C)cc(OCC(=O)N/N=C/c2ccc([N+](=O)[O-])o2)c1` as the molecule, how does the Potency read?
Answer: The Potency was active: 11.2 µM.

Question: For `N#Cc1ccc(NC(=O)Nc2ccc(Oc3ccc(NC(=O)Nc4ccc(C#N)cc4)cc3)cc2)cc1`, which Potency is on record?
Answer: Its Potency is inconclusive [inhibitor, single point].

Question: Which Potency does the source give for `COc1ccc(-c2cc(=O)c3c(OC)c(OC)c(OC)c(OC)c3o2)cc1OC` here?
Answer: Its Potency is inconclusive [inhibitor, single point].

Question: For `CCOC(=O)C1CCCN(S(=O)(=O)CCNC(=O)c2cccc(OC)c2)C1` (centres undefined), which Potency is on record?
Answer: The Potency was inconclusive [inhibitor, single point].

Question: Which Potency does the source give for `CC(C)Cc1ccc(CN2CCCC(NC(=O)c3cccc(-n4cnnc4)c3)C2)cc1` (centres undefined) here?
Answer: Its Potency is inconclusive [inhibitor, full curve, poor fit].

Question: With `COc1cc2c(C(=O)N3CCOCC3)c(CSc3ccccc3)n(C)c2cc1Br` as the molecule, how does the Potency read?
Answer: The Potency was active: 10 µM.

Question: For `Cn1ncc([N+](=O)[O-])c1C(=O)Nc1ccc(-c2nc3ccccc3o2)cc1`, which “activity change, negative = inhibition” value is on record?
Answer: Its value is inactive: -25.6%.

Question: Which Potency does the source give for `CC(=O)N1c2ccc(S(=O)(=O)NCC3CCC(C(=O)N(C)Cc4ccccc4)CC3)cc2CC1C` (centres undefined) here?
Answer: The Potency was inconclusive [inhibitor, partial curve].

Question: With `CCN(C(=O)COC(=O)CCCOc1ccccc1)c1c(N)n(Cc2ccccc2)c(=O)[nH]c1=O` as the molecule, how does the “activity change, negative = inhibition” value read?
Answer: The value was inactive: 0.405%.

Question: With `CN(C(=O)c1ccccn1)c1nnc(-c2cccnc2)s1` as the molecule, how does the “activity change, negative = inhibition” value read?
Answer: The value was inactive: -12.2%.

Question: With `Oc1ccccc1/C=N/NC(=S)NC1CC2CCC1C2` (centres undefined) as the molecule, how does the Potency read?
Answer: The Potency was inconclusive [inhibitor, full curve, poor fit].

Question: With `COc1ccc(NC(=O)Nc2cc(C)ccc2F)cc1OC` as the molecule, how does the “activity change, negative = inhibition” value read?
Answer: Its value is inactive: -12.2%.

Question: Which Potency does the source give for `CN=c1scc(-c2ccccc2F)n1/N=C(\C)c1cccnc1` here?
Answer: Its Potency is active: 31.6 µM.

Question: For `C[C@@H]1COC(=O)[C@@H](NC(=O)OCC2c3ccccc3-c3ccccc32)C/C=C\C[C@@H](CC(=O)N(CCO)Cc2ccccc2)C(=O)N1`, which Potency is on record?
Answer: The Potency was inconclusive [inhibitor, partial curve].

Question: For `O=C(C[n+]1ccc(C(=O)N/N=C/c2ccc(Cl)cc2Cl)cc1)c1ccccc1`, which “activity change, negative = inhibition” value is on record?
Answer: The value was inactive: 1.7%.

Question: For `CC(C)(C)OC(=O)CNC(=O)c1nc[nH]c1C(=O)NCc1ccc(CNC(=O)OC(C)(C)C)cc1`, which Potency is on record?
Answer: The Potency was inconclusive [inhibitor, single point].

Question: For `O=C(COc1ccc(Br)cc1Cl)NC1CCCCC1`, which Potency is on record?
Answer: Its Potency is inconclusive [inhibitor, single point].

Question: With `CCOC(=O)c1ccc[n+](C(C)C(=O)c2ccc(-c3ccccc3)cc2)c1` (centres undefined) as the molecule, how does the “activity change, negative = inhibition” value read?
Answer: Its value is inactive: -18.4%.

Question: For `CCOC(=O)C1=C(COC(=O)c2ccc(Cl)nc2)NC(=O)NC1C` (centres undefined), which “activity change, negative = inhibition” value is on record?
Answer: Its value is inactive: -2.97%.

Question: With `COc1ccc(/C=N/NC(=O)c2cc3cc(OC)c(OC)cc3[nH]2)cc1` as the molecule, how does the Potency read?
Answer: The Potency was inconclusive [inhibitor, partial curve].

Question: For `Oc1ccc(Cl)cc1CNCc1ccc(C(F)(F)F)cc1`, which “activity change, negative = inhibition” value is on record?
Answer: Its value is inactive: 23.1%.

Question: With `CC[C@]12c3[nH]c4ccc(OC)cc4c3CCN1C(=O)C(CC(=O)NCCCOC)C[C@@H]2C(=O)N1CCN(C(=O)C2CC2)CC1` (some centres undefined) as the molecule, how does the “activity change, negative = inhibition” value read?
Answer: Its value is inactive: -11%.

Question: For `COc1ccc(NC(=O)CN(c2ccccc2F)S(=O)(=O)c2ccc(C)cc2)cc1`, which Potency is on record?
Answer: The Potency was inconclusive [inhibitor, partial curve].

Question: For `CC(=C/c1ccc(C(C)C)cc1)/C=N/NC(=O)CSc1ccccn1`, which Potency is on record?
Answer: The Potency was inconclusive [inhibitor, single point].

Question: For `CC(=O)Nc1ccccc1C(=O)OCC(=O)c1cccc2ccccc12`, which Potency is on record?
Answer: The Potency was inconclusive [inhibitor, single point].

Question: Which “activity change, negative = inhibition” value does the source give for `CCOc1ccc(/C=N/NC(=O)c2csc(C)c2C)c(OCC)c1` here?
Answer: The value was inactive: -21.8%.

Question: With `CCOc1ccc(C(=O)Nc2ccc(NC(=O)c3ccco3)c(Cl)c2)cc1Cl` as the molecule, how does the Potency read?
Answer: Its Potency is inconclusive [inhibitor, full curve].

Question: Which “activity change, negative = inhibition” value does the source give for `CCOC(=O)/C=C1\Nc2ccccc2SC1=O` here?
Answer: Its value is inactive: 5.27%.

Question: Which Potency does the source give for `CC(OC(=O)c1ccccc1Br)C(=O)Nc1nc(-c2cccc([N+](=O)[O-])c2)cs1` (centres undefined) here?
Answer: The Potency was inconclusive [inhibitor, single point].

Question: Which Potency does the source give for `CCCc1cc(-c2[nH]ncc2-c2ccc3c(c2)OCCCO3)c(O)cc1O` here?
Answer: Its Potency is active: 11.2 µM.

Question: For `CCOc1ccc(NC(=O)NCCCn2c(C)nc3cc(C)c(C)cc32)cc1`, which Potency is on record?
Answer: The Potency was inconclusive [inhibitor, partial curve].

Question: Which “activity change, negative = inhibition” value does the source give for `O=C(CN1C(=O)/C(=C/c2ccc(Cl)cc2)SC1=S)NC1C=CS(=O)(=O)C1` (centres undefined) here?
Answer: The value was inactive: 1.95%.

Question: Which Potency does the source give for `CC(C)=CCCC1(C)C=Cc2c(ccc3c2[nH]c2cc(O)c(C)cc23)O1` (centres undefined) here?
Answer: Its Potency is inconclusive [inhibitor, single point].

Question: With `O=C(CN1CCN(C(=O)c2ccc(-c3nc4ccccc4s3)o2)CC1)Nc1ccccc1Cl` as the molecule, how does the Potency read?
Answer: The Potency was active: 11.2 µM.

Question: Which Potency does the source give for `COc1ccc(CNS(=O)(=O)c2ccc3c(c2)N(C(C)=O)CC(C)S3)cc1` (centres undefined) here?
Answer: Its Potency is inconclusive [inhibitor, partial curve].

Question: For `CCC(C)Oc1cccc(OCCCCN2C(=O)NC(C)(C)C2=O)c1` (centres undefined), which Potency is on record?
Answer: Its Potency is inconclusive [inhibitor, single point].

Question: For `CCOc1ccc(C(=O)/C=C/c2ccc(SC)cc2)cc1`, which Potency is on record?
Answer: The Potency was inconclusive [inhibitor, single point].

Question: For `CCOC(=O)c1ccc2ncc(C(=O)OCC)c(NCCN(C)C)c2c1`, which Potency is on record?
Answer: The Potency was inconclusive [inhibitor, single point].

Question: For `CN=CC1=C(O)c2ccccc2C1=O`, which “activity change, negative = inhibition” value is on record?
Answer: The value was inactive: 2.39%.

Question: Which Potency does the source give for `Cn1c(=O)n(C)c2cc([N+](=O)[O-])c(N3CCN(S(=O)(=O)c4ccc(C(C)(C)C)cc4)CC3)cc21` here?
Answer: Its Potency is active: 14.1 µM.

Question: With `CCOC(=O)CN1C(=O)c2ccccc2Sc2ncccc21` as the molecule, how does the “activity change, negative = inhibition” value read?
Answer: Its value is inactive: 10.7%.

Question: Which “activity change, negative = inhibition” value does the source give for `O=C(O)CCn1ncc2ccccc2c1=O` here?
Answer: The value was inactive: -3.57%.

Question: Which “activity change, negative = inhibition” value does the source give for `O=C(NCCCN1CCOCC1)c1cc(-c2ccc(F)cc2)nc2ccccc12` here?
Answer: Its value is inactive: -16.1%.

Question: Which Potency does the source give for `O=C(C1CCN(Cc2ccc(F)cc2)CC1)N(CCc1ccccc1)Cc1ccccc1` here?
Answer: The Potency was inconclusive [inhibitor, single point].

Question: For `CCOc1cc2[nH]c(=S)n(CCCN3CCOCC3)c(=O)c2cc1OCC`, which Potency is on record?
Answer: Its Potency is inconclusive [inhibitor, single point].

Question: Which Potency does the source give for `COc1ccc(-c2nnc3ccc(SCC(=O)N4CCCCCC4)nn23)cc1OC` here?
Answer: The Potency was inconclusive [inhibitor, single point].

Question: With `Cn1c2ccccc2c2c(C(=O)N3CCN(c4ccc(F)cc4)CC3)cn(C3CCCC3)c(=O)c21` as the molecule, how does the Potency read?
Answer: The Potency was inconclusive [inhibitor, single point].

Question: For `COc1ccccc1NC(=O)Cc1nn(C)c(=O)c2ccccc12`, which Potency is on record?
Answer: The Potency was inconclusive [inhibitor, partial curve].

Question: For `Cc1ccc(O)c(CP(=O)(c2ccccc2)c2ccccc2)c1`, which “activity change, negative = inhibition” value is on record?
Answer: The value was inactive: -29.2%.

Question: Which Potency does the source give for `COc1ccc(/C=C2\CC/C(=C\c3ccc(OC)c(OC)c3)C2=O)cc1OC` here?
Answer: The Potency was inconclusive [inhibitor, single point].

Question: For `CN(C)S(=O)(=O)N1CCC(c2ccc(F)cc2)C(COc2ccc3c(c2)OCO3)C1` (centres undefined), which Potency is on record?
Answer: Its Potency is inconclusive [inhibitor, single point].

Question: With `CN1CCCN(C(=O)c2cc(-c3ccc(Cl)c(Cl)c3Cl)nc3ccccc23)CC1` as the molecule, how does the Potency read?
Answer: Its Potency is inconclusive [inhibitor, partial curve].

Question: Which Potency does the source give for `COC(=O)c1ccccc1NC(=O)c1ccc2c(c1)OCCCO2` here?
Answer: Its Potency is inconclusive [inhibitor, single point].

Question: For `O=[N+]([O-])c1cc([N+](=O)[O-])c(Oc2ccc(Br)cc2Br)cc1NN1CCCCC1`, which Potency is on record?
Answer: The Potency was inconclusive [inhibitor, single point].

Question: For `COc1ccc(OCC(=O)Nc2ccccc2OC(F)F)cc1`, which Potency is on record?
Answer: The Potency was inconclusive [inhibitor, single point].

Question: Which “activity change, negative = inhibition” value does the source give for `COc1cccc(C=Nc2ccccc2C(=O)Nc2ccccc2)c1O` here?
Answer: The value was inactive: 32.8%.

Question: Which Potency does the source give for `Nc1nc(Nc2ccc(Cl)cc2)nc(NCc2ccco2)c1[N+](=O)[O-]` here?
Answer: The Potency was inconclusive [inhibitor, single point].

Question: With `CC1CCN(c2ccc([N+](=O)[O-])c(SCCO)c2)CC1` as the molecule, how does the Potency read?
Answer: The Potency was active: 10 µM.

Question: Which Potency does the source give for `CN1CC(c2ccccc2Cl)C2(COc3ccccc3C2=O)C12C(=O)Nc1ccccc12` (centres undefined) here?
Answer: Its Potency is inconclusive [inhibitor, single point].

Question: For `COc1cc(/C=C/C(=O)OCC(=O)NCC(=O)Nc2cccc(C)c2C)ccc1OC(F)F`, which Potency is on record?
Answer: The Potency was inconclusive [inhibitor, single point].

Question: With `CCCCCCCCOC(=O)c1c(CSC(=N)N)n(C)c2cc(Br)c(OC(C)=O)cc12` as the molecule, how does the Potency read?
Answer: The Potency was active: 11.2 µM.

Question: For `COc1ccc(C2/C=C\CN(C(=O)C3CCCC3)[C@H](Cc3ccccc3)C(=O)N2Cc2ccc(F)cc2)cc1` (some centres undefined), which “activity change, negative = inhibition” value is on record?
Answer: The value was inactive: -15%.

Question: With `COc1ccc(CN(C)CCCn2cnc3c(OCc4ccccc4)ncnc32)cc1OC` as the molecule, how does the Potency read?
Answer: Its Potency is inconclusive [inhibitor, partial curve, poor fit].

Question: Which Potency does the source give for `CCC(C)c1ccccc1N1CC(C(=O)N(C)CC(=O)Nc2cccc(F)c2)CC1=O` (centres undefined) here?
Answer: The Potency was inconclusive [inhibitor, single point].

Question: Which Potency does the source give for `Nc1nc(-c2ccc(-n3nncc3-c3ccco3)cc2)cs1` here?
Answer: Its Potency is inconclusive [inhibitor, single point].

Question: For `CN(CC(=O)Nc1cccc(F)c1)C(=O)c1cc(S(=O)(=O)N2CCN(c3ccccc3)CC2)ccc1Cl`, which Potency is on record?
Answer: Its Potency is inconclusive [inhibitor, partial curve].

Question: With `Clc1ccccc1OCCCCN1CCNCC1` as the molecule, how does the Potency read?
Answer: The Potency was inconclusive [inhibitor, single point].

Question: Which Potency does the source give for `C=C(C)COc1ccc(-c2ncnc(C(F)(F)F)c2-c2ccc(OC)cc2)c(O)c1` here?
Answer: The Potency was inconclusive [inhibitor, single point].

Reference: PubChem BioAssay AID651820 (National Center for Advancing Translational Sciences (NCATS), 2012)
